# In article PMC4336329 (PLoS ONE, 2015):
# Screen size: about 310,000 compounds; about 2,200 (0.71%) showed an effect of 50% or more. Effects have a minus sign here. The list shows a part of the results.
# Target: human ether-à-go-go-related gene (hERG) potassium channel (human, UniProt Q12809)
# Assay: primary screen, population patch clamp on CHO cells stably expressing hERG
# human ether-à-go-go-related gene (hERG) potassium channel, sequence (Q12809 whole entry, looked up): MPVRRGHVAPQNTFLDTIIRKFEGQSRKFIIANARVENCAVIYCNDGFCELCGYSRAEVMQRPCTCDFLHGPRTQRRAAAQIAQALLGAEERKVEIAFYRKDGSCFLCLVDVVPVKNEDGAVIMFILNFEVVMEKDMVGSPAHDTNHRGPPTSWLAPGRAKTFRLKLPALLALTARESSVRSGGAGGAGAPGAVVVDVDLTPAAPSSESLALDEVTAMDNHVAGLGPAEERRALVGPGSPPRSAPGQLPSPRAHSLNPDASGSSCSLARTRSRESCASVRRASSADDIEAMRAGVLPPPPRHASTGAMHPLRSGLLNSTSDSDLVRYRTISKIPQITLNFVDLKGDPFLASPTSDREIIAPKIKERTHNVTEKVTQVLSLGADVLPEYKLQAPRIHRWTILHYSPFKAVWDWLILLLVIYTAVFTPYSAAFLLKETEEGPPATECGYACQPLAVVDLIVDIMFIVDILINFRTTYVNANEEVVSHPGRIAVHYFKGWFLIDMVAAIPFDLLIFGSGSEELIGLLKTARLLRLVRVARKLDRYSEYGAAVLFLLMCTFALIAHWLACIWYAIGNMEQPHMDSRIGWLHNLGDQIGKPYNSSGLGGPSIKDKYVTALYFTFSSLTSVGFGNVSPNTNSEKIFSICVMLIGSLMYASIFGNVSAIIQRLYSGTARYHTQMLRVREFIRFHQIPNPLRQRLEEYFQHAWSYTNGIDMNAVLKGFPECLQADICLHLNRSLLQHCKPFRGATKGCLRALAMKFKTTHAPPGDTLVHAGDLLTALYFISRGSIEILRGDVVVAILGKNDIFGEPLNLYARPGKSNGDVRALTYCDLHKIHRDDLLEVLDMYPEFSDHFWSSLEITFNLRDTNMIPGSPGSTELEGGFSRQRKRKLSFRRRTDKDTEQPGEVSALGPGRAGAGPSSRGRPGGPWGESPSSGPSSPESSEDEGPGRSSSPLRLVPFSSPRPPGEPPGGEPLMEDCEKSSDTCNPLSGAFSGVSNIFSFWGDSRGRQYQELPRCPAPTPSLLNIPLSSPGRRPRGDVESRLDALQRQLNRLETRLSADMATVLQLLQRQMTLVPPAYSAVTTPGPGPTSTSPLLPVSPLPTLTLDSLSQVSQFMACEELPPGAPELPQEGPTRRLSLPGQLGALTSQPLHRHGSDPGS
row,SMILES,"hERG current change (%, negative = inhibition) at 1uM [%]"
1,Cc1cc(C)n2nc(C(=O)N/N=C/c3cn(C)nc3C)nc2n1,15.2
2,CCn1c(SC)nnc1C1CCN(S(=O)(=O)c2ccc(OC)cc2)CC1,12.9
3,C/C(=N\NC(=O)c1nc2ccccn2c1C)c1cc2ccccc2o1,-38.9
4,CC(C)c1ccc(NC(=O)N(CCc2nc3ccccc3[nH]2)C2CCCC2)cc1,11.7
5,O=C(Nc1ccc2nc(-c3cccs3)[nH]c2c1)c1ccco1,8.03
6,COc1cccc(Nc2nc3ccccc3nc2NS(=O)(=O)c2ccc(NC(C)=O)cc2)c1,20.1
7,O=C(NCc1cccnc1)c1cc(Sc2ccccc2Cl)nc2ccccc12,10.4
8,COc1ccc(OCC(O)CN(CC(O)COc2ccc(OC)cc2)c2cccc(O)c2)cc1 (stereo not drawn),11
9,COc1ccc(C2C(C(N)=O)=C(C)Nc3ncnn32)cc1 (stereo not drawn),-11.2
10,CCOC(=O)/C=C/C(=O)OCc1csc(CC(=O)Nc2ccccc2C)n1,2.93
11,COc1ccc(C(=O)Nc2ccc3[nH]ncc3c2)cc1,14.7
12,COc1cccc(N(C(=O)c2snc(C(N)=O)c2N)C(C(=O)NCC2CCCO2)c2ccc3ncccc3c2)c1 (stereo not drawn),7.02
13,Cn1cnnc1SC1c2cccc3cccc(c23)C1NS(=O)(=O)c1ccc(Cl)cc1 (stereo not drawn),11.3
14,NC(=O)c1ccc(C(F)(F)F)n(Cc2cccc(Cl)c2)c1=O,-0.183
15,CCc1nnc(NC(=O)c2ccc(COc3ccc(C)cc3)o2)s1,5.58
16,Cc1cc(-c2ccccc2)nc(=O)[nH]1,9.57
17,COc1ccc(CO/N=C/c2c(C)[nH]c(=O)[nH]c2=O)cc1,9
18,COc1cc2ccccc2cc1C(=O)NC(=S)Nc1ccc(C(=O)O)cc1,9.34
19,CNC(=O)CC(C(=O)O)c1ccc(OCC(C)C)cc1 (stereo not drawn),13.8
20,Cl.c1ccc(-c2nnc(CN3CCN(C(c4ccccc4)c4ccccc4)CC3)o2)cc1,10.9
21,Cc1cc(C)nc(N(C#N)CCOc2ccccc2)n1,7.77
22,CC(C)(C)c1cc[n+](-c2nc([O-])sc2C=O)cc1,18.6

row,SMILES,"hERG current change (%, negative = inhibition) at 1uM [%]"
1,COc1cccc(NC(=O)CN2CCN(CC(=O)Nc3ccccc3Cl)CC2)c1,-21.1
2,CC1=NOC(=O)/C1=C/c1ccc(O)c(Br)c1,22.1
3,COc1ccc(N=c2oc3cc(O)ccc3cc2C(=O)NCC2CCCO2)cc1 (stereo not drawn),9.02
4,COc1cc(C(=O)NC2CCN(Cc3nnnn3Cc3ccc(F)cc3)CC2)cc(OC)c1OC,3.89
5,CC1=C(C(=O)Nc2ccc(C(=O)N3CCN(c4ccccc4F)CC3)cc2)SCCO1,13.2
6,CCCCCN(C(=O)COC(=O)COc1c(C)cc(C)cc1C)c1c(N)n(CCCC)c(=O)[nH]c1=O,7.56
7,CC(C)C(=O)Nc1ccc(NC(=S)NC(=O)c2cc3ccccc3o2)cc1,12.3
8,COc1cc(CN2CCN(Cc3ccc(C)cc3)C(CCO)C2)cc(OC)c1O (stereo not drawn),-8.42
9,COc1ccccc1/C=N\N=C(\N)c1ccccn1,3.17
10,CCOc1ccc2c(c1)S/C(=C\c1cccs1)C(=O)N2,10
11,Cc1ccc[n+](C(C)C(=O)Nc2ccc(C)c(C)c2)c1.[Br-] (stereo not drawn),11.9
12,COc1ccc(C(=O)N2CCN(Cc3ccc4c(c3)OCO4)CC2)cc1[N+](=O)[O-],-6.08
13,O=C(Cn1nc(Cl)nc1Cl)c1cc2ccccc2oc1=O,-11.8
14,CCOc1cc(NC(=S)NCC2CCCO2)c(OCC)cc1NC(=O)c1ccccc1 (stereo not drawn),-5.53
15,COc1ccc(C(c2nnnn2CC2CCCO2)N2CCN(c3cccc(C)c3C)CC2)cc1.Cl (stereo not drawn),7.59
16,Cc1ccccc1CN1CCNC(=O)C1CC(=O)N(C)CCC1CCOCC1 (stereo not drawn),19.3
17,COc1ccc(CNc2c(C(=O)O)cnc3c2cnn3C)cc1,23
18,Cc1ccccc1-c1nc(CN2CCC(C(=O)NCc3ccco3)CC2)c(C)o1,-34.7
19,Cc1c(C(=O)N/N=C/c2ccc(N(C)C)cc2)[nH]c2ccc(Cl)cc12,9.53
20,O=C(c1ccc2c(c1)OCO2)N(Cc1ccco1)C1(C(=O)NC2CCCCC2)CCCCC1,2.89
21,O=C(NCc1ccc2c(c1)OCO2)C1CC(=O)N(c2ccc(Cl)cc2)C1 (stereo not drawn),-4.49
22,CCOC(=O)c1ccc(NC2c3ncccc3C(=O)N2Cc2ccc(F)cc2)cc1 (stereo not drawn),11.7

row,SMILES,"hERG current change (%, negative = inhibition) at 1uM [%]"
1,c1nc(N2CCC3(CC2)OCCO3)c2[nH]cnc2n1,22.6
2,COc1ccc(N2CCN(S(=O)(=O)CCNC(=O)COc3cccc(OC)c3)CC2)cc1,17.4
3,O=C(OCCN1C(=O)c2cccc3c(N4CCOCC4)ccc(c23)C1=O)c1cccc(Cl)c1,9.05
4,O=C(NCCc1ccc(F)cc1)c1ccc([N+](=O)[O-])cc1,-1.54
5,C#CCOCCOCCOCCNc1nc(N2CCN(C(=O)Cn3cc(CCC[NH+]=C(N)N)nn3)CC2)nc(N2CCN(C(=O)[C@H](C)n3cc(CCC[NH+]=C(N)N)nn3)CC2)n1.[Cl-],11.6
6,N#Cc1ccc(Oc2ccc(NC(=O)C3CC=CCC3C(=O)O)cc2)cc1 (stereo not drawn),13.4
7,Cc1ccc(CNC(=O)C2CC2c2ccccc2)cc1 (stereo not drawn),14.3
8,COC(=O)c1c(-c2ccc(Br)cc2)noc1N,17.4
9,O=C(Nc1ccc(Cl)c(Cl)c1)Oc1ccc(NC(=O)c2ccco2)cc1,19.8
10,COC(=O)CCC(=O)Nc1sc2c(c1C#N)CCCC2,8.13
11,O=C(c1ccc(=O)oc1)N1CCN(c2ccc(F)cc2)CC1,-0.973
12,CC1CN(C(=O)c2cc3cc(Br)ccc3[nH]2)CC(C)O1 (stereo not drawn),7.81
13,N#CCC(=O)N/N=C1\CCCCC1C1CCCCC1 (stereo not drawn),9.25
14,Cc1ccc(CC2CC(=O)N(Cc3ccco3)C2=O)cc1 (stereo not drawn),5.21
15,O=c1c2ccccc2oc2cc(NCCCn3ccnc3)ccc12,0.0608
16,Cc1cc(C)c(S(=O)(=O)NCCC2CCCN2C)c(C)c1 (stereo not drawn),16.4
17,COc1ccc(N2CCN(C(=O)c3cc(=O)c4cc(C)cc(C)c4o3)CC2)cc1,-2.24
18,COc1ccc(OCC2CCNCC2)cc1.Cl,16.7
19,C=CCOC(=O)CCP(=O)(CCC(=O)OCC=C)c1ccccc1,-1.19
20,O=[N+]([O-])c1cccc(CN2CCN(c3cccc4[nH]ccc34)CC2)c1,13.4
21,O=C(Cc1cccc(NC(=O)C2CCCN(C(=O)C3CC3)C2)c1)Nc1cccc(C(=O)N2CCCC2)c1 (stereo not drawn),15.7
22,NS(=O)(=O)c1cc(C(=O)OCC(=O)NC2CC2)ccc1Cl,-4.99

row,SMILES,"hERG current change (%, negative = inhibition) at 1uM [%]"
1,CCCCNC(=O)CCC(=O)NNc1nc2ccccc2c2nc(C)nn12,26.5
2,Nc1c(-c2cccc(Cl)c2)cnc2c(-c3ccccc3)cnn12,10.7
3,CC12CCC(C(=O)N(NC(=O)c3cccnc3)C1=O)C2(C)C (stereo not drawn),16.3
4,COc1ccc(C(=O)Nc2ccnn2C2CCN(CC3CC=CCC3)CC2)cc1 (stereo not drawn),-10.4
5,Cc1ccc(/C(O)=C2/C(=O)C(=O)N(CCN3CCOCC3)C2c2cccs2)cc1 (stereo not drawn),14.4
6,CN(C(=O)COC(=O)/C=C/c1cccs1)c1c(N)n(Cc2ccccc2)c(=O)[nH]c1=O,11.3
7,Cc1cc(/C=N/NC(=O)c2cccs2)c(C)n1-c1ccccc1,19.4
8,CCN(CC)S(=O)(=O)c1ccc(N=N/C(C(C)=O)=C(/C)O)cc1,12
9,O=C(CN1C(=O)NC2(CCCC2)C1=O)N1CCN(Cc2ccccc2)CC1,12.5
10,O=C(NCC1CCCO1)c1cc(-c2ccc(Cl)cc2Cl)on1 (stereo not drawn),12.3
11,CCCOc1cccc(-c2nc3ccccc3c(=O)o2)c1,15
12,O=C(CCCn1cc([N+](=O)[O-])cn1)Nc1cccnc1,4.27
13,c1ccc(-c2nc3ccccn3c2-c2ccccc2)cc1,12.1
14,CCOC(=O)c1ccc(NC(=O)c2nc[nH]c2C(=O)N2CCc3ccccc3C2)cc1,10.3
15,CCC1C(=O)NCCN1C(=O)c1cccc(OC2CCN(S(=O)(=O)N(C)C)CC2)c1 (stereo not drawn),12.8
16,O=c1cnn(Cc2ccc(Cl)c(Cl)c2)c2ccccc12,7.92
17,Cc1cc(F)ccc1S(=O)(=O)Nc1nc2ccccc2nc1Cl,11.8
18,COc1cccc(C(=O)N(C)CC2CCN(CCc3cccc(C(F)(F)F)c3)CC2)c1,-70.3
19,CCOC(=O)c1c(C)[nH]c(NC(=O)N2CCOCC2)c1C,16.1
20,CCOC(=O)C1CCN(Cc2c(C(=O)N3CCOCC3)nc3c(C)cccn23)CC1,6.59
21,CC(C)(C)c1ccc(-c2n[nH]c(=S)n2CC2CCCO2)cc1 (stereo not drawn),8.12
